# Some of the results follow. Repeats are few or missing, and single values can be far off.
# What was measured:
# Assay in all cases: cell viability relative to vehicle (% of vehicle); basal-like triple-negative breast cancer lines; higher = less cytotoxic
# Details in all cases: 10 µM; 72 h
# [1] = system: HCC-1143
# [2] = system: HCC-1187
# [3] = system: MDA-468
# [4] = system: SUM-149
# 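Also: stably firefly luciferase-GFP labeled cells in 96-well plates, viability read as luciferase photon flux after d-luciferin addition, treated wells normalized to vehicle wells, single-dose high-throughput screen.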
smiles,measurement,setting,value
C1=C\COCc2cc(ccc2OCCN2CCCC2)Nc2nccc(n2)-c2cccc(c2)COC/1 [Pacritinib],cell viability,[1],49.6
same,cell viability,[2],45.1
same,cell viability,[3],40.3
same,cell viability,[4],71.5
CNC(=O)c1cc(Oc2ccc(NC(=O)Nc3ccc(Cl)c(C(F)(F)F)c3)c(F)c2)ccn1 [Regorafenib],cell viability,[1],103
same,cell viability,[2],104
same,cell viability,[3],103
same,cell viability,[4],100
CC1=CC(=O)c2ccccc2C1=O [Menadione],cell viability,[1],76.8
same,cell viability,[2],109
same,cell viability,[3],85.5
same,cell viability,[4],93.5
O=C(Nc1c(Cl)cncc1Cl)c1ccc(OC(F)F)c(OCC2CC2)c1 [Roflumilast],cell viability,[1],92.4
same,cell viability,[2],80.9
same,cell viability,[3],90.3
same,cell viability,[4],132
Cn1c(=O)c2c(ncn2CC(O)CO)n(C)c1=O (stereo not given) [Dyphylline],cell viability,[1],93.5
same,cell viability,[2],91.9
same,cell viability,[3],85.5
same,cell viability,[4],113
CCN(CCO)CCCOc1ccc2c(Nc3cc(CC(=O)Nc4cccc(F)c4)[nH]n3)ncnc2c1 [Barasertib (AZD1152-HQPA)],cell viability,[1],78.1
same,cell viability,[2],32.5
same,cell viability,[3],56.3
same,cell viability,[4],136
O=C(O)CSCC(=O)NC1CCSC1=O (stereo not given) [Erdosteine],cell viability,[1],91.5
same,cell viability,[2],78
same,cell viability,[3],104
same,cell viability,[4],138
OCC1OC(OC2(CCl)OC(CCl)C(O)C2O)C(O)C(O)C1Cl (stereo not given) [Sucralose],cell viability,[1],69.6
same,cell viability,[2],88.7
same,cell viability,[3],98.5
same,cell viability,[4],103
Clc1ccc(CCC(Cn2ccnc2)Sc2c(Cl)cccc2Cl)cc1.O=[N+]([O-])O (stereo not given) [Butoconazole nitrate],cell viability,[1],117
same,cell viability,[2],117
same,cell viability,[3],133
same,cell viability,[4],148
COc1cc2c(cc1OC)CC(=O)N(CCCN(C)CC1Cc3cc(OC)c(OC)cc31)CC2.Cl (stereo not given) [Ivabradine HCl],cell viability,[1],78
same,cell viability,[2],91.9
same,cell viability,[3],104
same,cell viability,[4],103
Oc1c(Br)cc(Br)c2cccnc12 [Broxyquinoline],cell viability,[1],40.2
same,cell viability,[2],95.9
same,cell viability,[3],26.6
same,cell viability,[4],93.1
C=CCc1cc(OC)c(O)c(C(=O)NCCO)c1 [Alibendol],cell viability,[1],78.5
same,cell viability,[2],95.3
same,cell viability,[3],123
same,cell viability,[4],129
CN(C)CCC=C1c2ccccc2CCc2ccccc21.Cl [Amitriptyline HCl],cell viability,[1],78.2
same,cell viability,[2],105
same,cell viability,[3],93.3
same,cell viability,[4],73.2
CC1c2cccc(O)c2C(O)=C2C(=O)C3(O)C(O)=C(C(N)=O)C(=O)C(N(C)C)C3C(O)C21.Cl (stereo not given) [Doxycycline HCl],cell viability,[1],73.8
same,cell viability,[2],84.8
same,cell viability,[3],98.9
same,cell viability,[4],88.3
CN(C)CCC(c1ccccc1)c1ccccn1.O=C(O)C=CC(=O)O (stereo not given) [Pheniramine Maleate],cell viability,[1],98.5
same,cell viability,[2],93.7
same,cell viability,[3],115
same,cell viability,[4],103
COc1ccc2c(O[C@H]3CC4C(=O)N(C)CCCC/C=C\[C@H]5C[C@@]5(C(=O)NS(=O)(=O)C5CC5)NC(=O)[C@@H]4C3)cc(-c3nc(C(C)C)cs3)nc2c1C (stereo not given in full) [Simeprevir],cell viability,[1],79.3
same,cell viability,[2],82.6
same,cell viability,[3],84.6
same,cell viability,[4],109
CNC1C(OC2C(OC3C(O)C(O)C(N=C(N)N)C(O)C3N=C(N)N)OC(C)C2(O)C=O)OC(CO)C(O)C1O.CNC1C(OC2C(OC3C(O)C(O)C(N=C(N)N)C(O)C3N=C(N)N)OC(C)C2(O)C=O)OC(CO)C(O)C1O.O=S(=O)(O)O.O=S(=O)(O)O.O=S(=O)(O)O (stereo not given) [Streptomycin sulfate],cell viability,[1],76
same,cell viability,[2],70.3
same,cell viability,[3],94.3
same,cell viability,[4],90.1
Nc1nccs1 [Aminothiazole],cell viability,[1],109
same,cell viability,[2],82.6
same,cell viability,[3],86
same,cell viability,[4],77.4
CCOC(=O)C(CCc1ccccc1)NC1CSC(c2cccs2)CN(CC(=O)O)C1=O.Cl (stereo not given) [Temocapril HCl],cell viability,[1],97.4
same,cell viability,[2],92.3
same,cell viability,[3],104
same,cell viability,[4],110
CCOC(=O)C1=C(C)NC(C)=C(C(=O)OC)C1c1cccc([N+](=O)[O-])c1 (stereo not given) [Nitrendipine],cell viability,[1],84.9
same,cell viability,[2],87.1
same,cell viability,[3],102
same,cell viability,[4],114
Cc1cccc(C)c1OCC(C)N.Cl (stereo not given) [Mexiletine HCl],cell viability,[1],81
same,cell viability,[2],101
same,cell viability,[3],120
same,cell viability,[4],89.1
Cc1ncc([N+](=O)[O-])n1CC(C)O (stereo not given) [Secnidazole],cell viability,[1],83.1
same,cell viability,[2],78.8
same,cell viability,[3],110
same,cell viability,[4],101
COc1cc2nccc(Oc3ccc(NC(=O)C4(C(=O)Nc5ccc(F)cc5)CC4)cc3)c2cc1OC.O=C(O)CC(O)C(=O)O [Cabozantinib malate (XL184)],cell viability,[1],71.5
same,cell viability,[2],88.3
same,cell viability,[3],121
same,cell viability,[4],84.9
O=C1c2ccccc2C(=O)C1c1ccccc1 [Phenindione],cell viability,[1],104
same,cell viability,[2],96.1
same,cell viability,[3],120
same,cell viability,[4],105
Cc1cc(=O)n(-c2ccccc2)n1C [Antipyrine],cell viability,[1],70.7
same,cell viability,[2],88.2
same,cell viability,[3],112
same,cell viability,[4],110
CNCC(O)c1ccc(O)c(O)c1.O=C(O)C(O)C(O)C(=O)O (stereo not given) [Epinephrine Bitartrate],cell viability,[1],89.4
same,cell viability,[2],101
same,cell viability,[3],167
same,cell viability,[4],113
COc1cc2c(cc1OC)CN(CCc1ccc(NC(=O)c3cccc4c(=O)c5cccc(OC)c5[nH]c34)cc1)CC2 [Elacridar],cell viability,[1],87.7
same,cell viability,[2],110
same,cell viability,[3],73.4
same,cell viability,[4],104
O=C(O)CC(O)CC(O)C=Cc1c(C2CC2)nc2ccccc2c1-c1ccc(F)cc1 (stereo not given) [Pitavastatin],cell viability,[1],58.8
same,cell viability,[2],35.3
same,cell viability,[3],35.6
same,cell viability,[4],66.3
CC(CCc1ccccc1)NCC(O)c1ccc(O)c(C(N)=O)c1.Cl (stereo not given) [Labetalol HCl],cell viability,[1],94.6
same,cell viability,[2],114
same,cell viability,[3],119
same,cell viability,[4],80.4
COc1ccccc1Oc1c(NS(=O)(=O)c2ccc(C(C)(C)C)cc2)nc(-c2ncccn2)nc1OCCO [Bosentan],cell viability,[1],99.3
same,cell viability,[2],116
same,cell viability,[3],112
same,cell viability,[4],88.5
OCC1OC(Oc2cc(O)cc(C=Cc3ccc(O)cc3)c2)C(O)C(O)C1O (stereo not given) [Polydatin],cell viability,[1],171
same,cell viability,[2],65.4
same,cell viability,[3],156
same,cell viability,[4],145
Br.Br.Br.Br.Br.Cc1cc(N2CCN(C3CNC(C(=O)N4CCSC4)C3)CC2)n(-c2ccccc2)n1.Cc1cc(N2CCN(C3CNC(C(=O)N4CCSC4)C3)CC2)n(-c2ccccc2)n1 (stereo not given) [Teneligliptin hydrobromide],cell viability,[1],99.9
same,cell viability,[2],96.3
same,cell viability,[3],91.7
same,cell viability,[4],102
CC(=O)[N-]S(=O)(=O)c1ccc(N)cc1.[Na+] [Sulfacetamide Sodium],cell viability,[1],74.8
same,cell viability,[2],78.3
same,cell viability,[3],94.6
same,cell viability,[4],104
CCC1C(=O)N(C)c2cnc(Nc3ccc(C(=O)NC4CCC(N5CCN(CC6CC6)CC5)CC4)cc3OC)nc2N1C(C)C (stereo not given) [BI6727 (Volasertib)],cell viability,[1],79.2
same,cell viability,[2],90.9
same,cell viability,[3],104
same,cell viability,[4],102
CC1(C(=O)[O-])CCC2(C)CCC3(C)C(=CC(=O)C4C5(C)CCC(OC(=O)CCC(=O)[O-])C(C)(C)C5CCC43C)C2C1.[Na+].[Na+] (stereo not given) [Carbenoxolone disodium],cell viability,[1],77
same,cell viability,[2],92.2
same,cell viability,[3],94.6
same,cell viability,[4],87.8
CC(=O)OC1(C(C)=O)CCC2C3C=C(C)C4=CC(=O)CCC4(C)C3CCC21C (stereo not given) [Megestrol Acetate],cell viability,[1],81.3
same,cell viability,[2],104
same,cell viability,[3],109
same,cell viability,[4],108
C#C[C@]1(O)CC[C@H]2[C@@H]3CCC4=CCCC[C@@H]4[C@H]3C(=C)C[C@@]21CC [Desogestrel],cell viability,[1],74.3
same,cell viability,[2],92.6
same,cell viability,[3],115
same,cell viability,[4],115
CC(=O)SC1CC2=CC(=O)CCC2(C)C2CCC3(C)C(CCC34CCC(=O)O4)C12 (stereo not given) [Spironolactone],cell viability,[1],74.1
same,cell viability,[2],83.2
same,cell viability,[3],112
same,cell viability,[4],84
CC(OC1OCCN(Cc2nc(=O)n(P(=O)(O)O)[nH]2)C1c1ccc(F)cc1)c1cc(C(F)(F)F)cc(C(F)(F)F)c1.CNCC(O)C(O)C(O)C(O)CO.CNCC(O)C(O)C(O)C(O)CO (stereo not given) [Fosaprepitant dimeglumine salt],cell viability,[1],92.2
same,cell viability,[2],49.4
same,cell viability,[3],109
same,cell viability,[4],138
CC(NCCCc1cccc(C(F)(F)F)c1)c1cccc2ccccc12.Cl (stereo not given) [Cinacalcet HCl],cell viability,[1],83.2
same,cell viability,[2],90.7
same,cell viability,[3],102
same,cell viability,[4],106
O=c1cc(O)c(Cl)c[nH]1 [Gimeracil],cell viability,[1],92.2
same,cell viability,[2],91.7
same,cell viability,[3],91.4
same,cell viability,[4],110
O=C(O)Cc1cc(I)c(Oc2ccc(O)c(I)c2)c(I)c1 [Tiratricol],cell viability,[1],69.4
same,cell viability,[2],95.7
same,cell viability,[3],106
same,cell viability,[4],98.9
C#Cc1cccc(Nc2ncnc3cc(OC)c(OCCCCCCC(=O)NO)cc23)c1,cell viability,[1],66
same,cell viability,[2],76.7
same,cell viability,[3],92.5
same,cell viability,[4],123
CCCCOc1cc(C(=O)NCCN(CC)CC)c2ccccc2n1 [Dibucaine],cell viability,[1],73.5
same,cell viability,[2],87.9
same,cell viability,[3],122
same,cell viability,[4],109
O=NN(CCCl)C(=O)NC1CCCCC1 [Lomustine],cell viability,[1],77.4
same,cell viability,[2],98.8
same,cell viability,[3],102
same,cell viability,[4],93.3
CCNC(=O)CCCC=CCC1C(O)CC(O)C1C=CC(O)CCc1ccccc1 (stereo not given) [Bimatoprost],cell viability,[1],82.8
same,cell viability,[2],79.3
same,cell viability,[3],93.5
same,cell viability,[4],108
CC12C=CC(=O)NC1CCC1C2CCC2(C)C(C(=O)Nc3cc(C(F)(F)F)ccc3C(F)(F)F)CCC12 (stereo not given) [Dutasteride],cell viability,[1],81.5
same,cell viability,[2],87.7
same,cell viability,[3],86.8
same,cell viability,[4],106
CCOC(=O)C(CCc1ccccc1)NC(C)C(=O)N1C(=O)N(C)CC1C(=O)O.Cl (stereo not given) [Imidapril HCl],cell viability,[1],82.7
same,cell viability,[2],75.5
same,cell viability,[3],103
same,cell viability,[4],106
Cc1onc(-c2ccccc2Cl)c1C(=O)NC1C(=O)N2C1SC(C)(C)C2C(=O)[O-].O.[Na+] (stereo not given) [Cloxacillin Sodium],cell viability,[1],126
same,cell viability,[2],116
same,cell viability,[3],125
same,cell viability,[4],109
C=CC[N+]1(C2CC3C4CCC5CC(O)C(N6CCOCC6)CC5(C)C4CCC3(C)C2OC(C)=O)CCCC1.[Br-] (stereo not given) [Rocuronium Bromide],cell viability,[1],103
same,cell viability,[2],99.8
same,cell viability,[3],99.4
same,cell viability,[4],87.8

# From the supplement of paper PMC8512760
